Results on 79 sequences are retold here after the supplement of paper PMC10126150.

Sequences with one replicate were seen in a single cluster, so their values are uncertain.
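Also: ATP exposure 15 min at 22 °C before imaging.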

The test system of this data set is ATP. The experiment in a line: switch fluorescence ratio, 500 uM ATP over buffer (Cy3 cluster intensity, sum of 5 cycles each) (fold (ratio)); higher = stronger signal-on switching upon ATP binding; sequences stand for … in TCGTCGGCAGCGTCAGATGTGTATAAGAGACAGTTTTTTTTTTTTTTTTTTTTTTTTT…TC. The following applies: aptamer strand: ATP DNA aptamer (quencher-CACCTGGGGGAGTATTGCGGAGGAAGG + anchor), 100 nM annealed; ATP concentration: 500 uM; one replicate. In outline:
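Between each of five buffer/ATP cycles, the flow-cell was stripped with NaOH and re-annealed. Each cycle imaged Cy3-labelled switching-strand clusters, annealed to 100 nM quencher-labelled ATP aptamer on a modified Illumina MiSeq flow-cell, first in selection buffer and then after 15 min with 500 uM ATP at 22 °C. The fluorescence ratio is summed target-cycle over summed buffer-cycle Cy3 intensity per cluster, averaged per switch-domain sequence, with clusters outside 100-1000 RFU excluded.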
With CTCATAGAAA, the switch fluorescence ratio was determined as 0.98.
In the case of GGATAACGCC it was 1.
As for TGTTCTTAGA, the switch fluorescence ratio came to 1.02.
Consider CGGGGTATA, for which the switch fluorescence ratio came to 0.993.
In the case of AAGATTTGGT it was 1.01; in that of TTGCCTGT, 1.06.
As to TGTTTAAGAT, the switch fluorescence ratio was determined as 1.02.
Take ACATACTTGG: the switch fluorescence ratio amounted to 1.23.
With ACACTTTTTA, the switch fluorescence ratio worked out at 1.04.
In the case of TTGCGCGAGG it was 1.02; in that of GGCCCATGCA, 0.992.
Consider GCCATGCCGG, for which the switch fluorescence ratio was 1.02.
In the case of GTCGAAATAA it was 1.02; in that of GCACAGCGGA, 1.02.
The result for GGGTCTCCCG reads 1.06; that for AGGAAGATGA, 0.977.
The result for CTACCTGTGG reads 0.977.
Turning to CAATGTGAAC, the switch fluorescence ratio was 1.03.
As for CGTGCAGGAT, the switch fluorescence ratio is 0.996.
In the case of GGTGTAATGC it was 1.2; in that of ACGGCCCATG, 1.09.
In the case of TAATGATTGG it was 0.955.
The result for TAGCTGAAGC reads 0.995; that for GGTAAAATAG, 1.01; that for AGGCATGGGG, 0.992.
For GACTGTGTCG, the switch fluorescence ratio was 0.954.
Take CCGGAGTACG: the switch fluorescence ratio was 2.98.
As to GGATAATTAC, the switch fluorescence ratio came out at 1.05.
Regarding CATATATATT, the switch fluorescence ratio came to 1.
In the case of TCGGGACGCA it was 1.05; in that of ACATGCCAT, 0.972; in that of GTTGTCGTT, 0.978.
The result for TGTTTCTCAC reads 1.83.
The result for GGCGTGTGGA reads 1.04; that for GTTACGGGAA, 1.02; that for GCCTTTTCGC, 1.09.
As to GGGTGTAAGA, the switch fluorescence ratio was 1.02.
The result for GAGGCCGCAG reads 2.94.
Consider AGTTATGGTC, for which the switch fluorescence ratio was 0.999.
The result for ACTGTATCGA reads 1.16.
The result for CGATAGGCGA reads 1.01; that for GGGTACCTCA, 1.03; that for CTTACAGTTG, 0.998.
In the case of GCAAAAATCG it was 1.01; in that of GGTCCGTAAG, 1.09.
Consider TCAACAACCT, for which the switch fluorescence ratio stood at 1.33.
The result for TGAGATGTAA reads 0.993.
In the case of ATGTAACGG, the switch fluorescence ratio amounted to 0.979.
The result for GCGAGGTCTT reads 0.959; that for GTTCGTACAC, 0.994.
In the case of TGTTGGATGG it was 0.978.
GCAACATCTG: the switch fluorescence ratio is 1.04.
On to AAAGACGAAA, for which the switch fluorescence ratio stood at 1.04.
In the case of CGATCATTTG, the switch fluorescence ratio amounted to 0.998.
The result for TCAGATTTCG reads 1.01.
Consider GTATCATAGC, for which the switch fluorescence ratio is 0.992.
In the case of CGCAGGTGTC, the switch fluorescence ratio amounted to 1.83.
In the case of AGCGGGGGCA it was 1.02; in that of TACATCCCTT, 1.05; in that of GGGAGCAATG, 1.57.
In the case of CGCGGTAAC, the switch fluorescence ratio worked out at 2.77.
Turning to AGTCTTAGCT, the switch fluorescence ratio was 0.992.
In the case of AAAGACGATC it was 1.13; in that of TATCATAAA, 1.01; in that of TCATTCGCAC, 4.01.
In the case of GCGGTCAAAA, the switch fluorescence ratio is 0.91.
For ACGGGGGC, the switch fluorescence ratio came to 1.02.
In the case of ATTTGTATTA it was 0.962.
Take AATTGGGTCC: the switch fluorescence ratio was 1.03.
For the sequence CCCCAATTCG, the switch fluorescence ratio came out at 1.17.
The result for GGTTTAGCTT reads 1; that for TGTATCCGGT, 0.981; that for CATCCTCTCA, 1.07.
In the case of CGTGTATCG it was 0.963.
Turning to GCCCACTCGG, the switch fluorescence ratio was determined as 1.05.
In the case of TAGCCACCGT it was 0.998.
With AGAGCAAGCC, the switch fluorescence ratio worked out at 1.55.
The result for GTGCTAAAG reads 0.988.
The result for CTGAGAGCTC reads 0.977.
